The whole screen tested about 310,000 compounds, of which about 14,000 (4.5%) showed an effect of 50% or more. Effects have a minus sign here. Some of the results follow.
Each molecule was assayed against human ether-à-go-go-related gene (hERG) potassium channel (human, UniProt Q12809) (assay: primary screen, population patch clamp on CHO cells stably expressing hERG).
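Note: peak tail current of the secondary pulse compared with the same well before compound.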

Chain of human ether-à-go-go-related gene (hERG) potassium channel (Q12809 whole entry, looked up): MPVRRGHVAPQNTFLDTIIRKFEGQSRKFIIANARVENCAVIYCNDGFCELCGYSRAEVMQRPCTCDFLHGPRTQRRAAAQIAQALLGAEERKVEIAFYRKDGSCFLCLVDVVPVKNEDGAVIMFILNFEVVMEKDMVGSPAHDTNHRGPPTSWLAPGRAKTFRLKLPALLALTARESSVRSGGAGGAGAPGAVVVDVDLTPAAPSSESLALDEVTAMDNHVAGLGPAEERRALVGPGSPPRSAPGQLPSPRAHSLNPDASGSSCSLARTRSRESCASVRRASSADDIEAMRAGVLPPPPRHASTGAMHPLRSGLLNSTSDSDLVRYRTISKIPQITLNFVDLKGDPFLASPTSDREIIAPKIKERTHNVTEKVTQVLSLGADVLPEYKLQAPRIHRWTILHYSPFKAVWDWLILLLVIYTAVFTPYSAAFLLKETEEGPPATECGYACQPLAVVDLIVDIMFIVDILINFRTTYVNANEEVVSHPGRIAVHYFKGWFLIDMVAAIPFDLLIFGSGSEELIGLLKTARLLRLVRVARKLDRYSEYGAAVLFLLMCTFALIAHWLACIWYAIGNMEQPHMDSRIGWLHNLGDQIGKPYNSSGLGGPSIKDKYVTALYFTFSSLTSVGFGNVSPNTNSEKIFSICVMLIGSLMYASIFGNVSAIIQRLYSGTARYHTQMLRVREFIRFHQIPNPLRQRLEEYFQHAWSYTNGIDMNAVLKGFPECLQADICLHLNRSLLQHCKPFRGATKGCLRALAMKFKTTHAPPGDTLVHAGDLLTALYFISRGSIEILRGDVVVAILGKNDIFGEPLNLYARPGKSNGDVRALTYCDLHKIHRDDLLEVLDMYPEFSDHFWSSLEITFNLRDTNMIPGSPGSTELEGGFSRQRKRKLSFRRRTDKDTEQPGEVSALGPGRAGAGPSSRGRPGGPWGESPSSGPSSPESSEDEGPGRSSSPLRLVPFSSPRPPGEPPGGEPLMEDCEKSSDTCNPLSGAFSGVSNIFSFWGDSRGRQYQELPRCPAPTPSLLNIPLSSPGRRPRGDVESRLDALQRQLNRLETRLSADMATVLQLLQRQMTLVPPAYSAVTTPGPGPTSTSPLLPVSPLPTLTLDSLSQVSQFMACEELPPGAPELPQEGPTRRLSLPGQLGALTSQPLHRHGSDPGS

SMILES	hERG current change (%, negative = inhibition) at 10uM
Cc1ccnc(SCc2ccc(C(=O)O)cc2)n1	11.1%
O=c1[nH]c(CN2CC=C(c3ccccc3)CC2)nc2cc(C(F)(F)F)ccc12	-8.61%
CC(C)(C)c1nc2ccc(NS(=O)(=O)c3ccc(F)c(F)c3F)cc2[nH]1	10.6%
COc1ccc(N2CC(C(=O)Nc3cccc(OC(C)C)c3)CC2=O)cc1 (centres unmarked)	-9.29%
O=S(=O)(NC1CC1)c1ccc(S(=O)(=O)N2CCN3CCCC3C2)cc1 (centres unmarked)	-10%
Cc1ccccc1NC(=O)c1cccc(S(C)(=O)=O)c1	16%
COc1ccc(-n2nc(C(=O)NCC(=O)N3CC(C)CC(C)C3)c3ccccc3c2=O)c(OC)c1 (centres unmarked)	-6.68%
Cc1ccc(CN2CC(=O)N3[C@H]4c5ccccc5OC[C@@H]4[C@H](c4ccccc4)[C@]3(C)C2=O)cc1	19.3%
CCN(CC)C(=O)Cc1cc(C(=O)O)c2ccccc2n1	14%
CCN1CCN(c2nc3c(c(=O)[nH]2)CCCC3)CC1	-1.13%
CCN1CCc2c(C#N)c(N3CCCCC3)nc(N3CCOCC3)c2C1	-19.7%
CCCCn1c(C(C)NC(=O)CC)nc2ccccc21 (centres unmarked)	-21.9%
Cc1ccc2c(c1)c1nnc(SCC(=O)Nc3ccccc3C(F)(F)F)nc1n2CC(=O)O	11.2%
O=C1CN(C(=O)c2ccccc2)C(c2ccccc2)c2cc(F)ccc2N1 (centres unmarked)	-75.1%
CC(N=Cc1cc([N+](=O)[O-])ccc1O)c1ccccc1 (centres unmarked)	11.7%
COc1cccc(-c2nc(CS(=O)(=O)CC(=O)Nc3cccc(C)c3C)c(C)o2)c1	17.7%
CCCNC(=O)NC(=O)CSc1nc2ccccc2c(=O)n1Cc1ccncc1	-36.4%
Cn1c(=O)oc2cc(S(=O)(=O)NCCc3ccccc3)ccc21	-14%
O=C(Nc1nnc(C2CCCC2)s1)C1CCC1	-0.134%
COc1ccc(S(=O)(=O)Cc2ccc(C(=O)N3CCOCC3)o2)cc1	1.23%
CCNC(=S)N(CCc1ccc(OC)c(OC)c1)Cc1cc2cc(OC)ccc2[nH]c1=O	-56.9%
CCC(O)(c1ccccc1)C(CN1CCOCC1)c1ccccc1.Cl (centres unmarked)	26.1%
CC1=C(C)[N+](=O)C2(O)CCCCC2(C)N1[O-] (centres unmarked)	10.8%

SMILES	hERG current change (%, negative = inhibition) at 10uM
Cc1ccc(C(=O)N/N=C2\CCCc3ccccc32)c(C)c1	7.19%
CC1CCCN(C2(O)C(=O)Nc3ccc(Br)cc32)C1 (centres unmarked)	-5.89%
COc1ccccc1NC(=O)N1CCCC1C(=O)NC12CC3CC(CC(C3)C1)C2 (centres unmarked)	7.98%
O=C1NC(=Nc2ccccc2)CS1	15.7%
C/C(=N\Nc1cc(C)nc(NCc2ccccc2)n1)c1cccc([N+](=O)[O-])c1	13.2%
O=C(Nc1ccccc1)Nc1ccc(S(=O)(=O)N2CCCCC2)cc1	9.74%
CC(/C=N\NC(=O)c1cccnc1)c1ccccc1 (centres unmarked)	4.58%
Cc1ccccc1-n1c(O)c(/C=N/NC(=O)c2ccccc2O)c(=O)[nH]c1=S	12.2%
CSc1ncc(CN2CCC(C(=O)Nc3cccc(-c4cscn4)c3)CC2)cn1	-35.7%
Nc1cc(N)nc(SCC(=O)Nc2ccccc2N2CCOCC2)n1	2.73%
CCOC(=O)c1cccc(OS(=O)(=O)Cc2ccccc2)c1	-21.8%
CC(C)(C=O)Cc1cc(C(C)(C)C)c(O)c(C(C)(C)C)c1	-13.6%
Cc1csc(=O)n1CC(=O)OCC(=O)NNC(=O)c1ccccc1	17.5%
Cc1ccc(-c2nnc(COC(=O)c3cccs3)o2)cc1	-13.7%
COc1cc(C2NC(=S)NC(C)=C2C(=O)Nc2cc(C)cc(C)c2)ccc1O (centres unmarked)	19.6%
O=C(Cn1cncn1)N/N=C/c1cc([N+](=O)[O-])ccc1O	1.67%
O=C(NCc1nc2ccccc2[nH]1)C1=C[C@@H](c2csc3ccccc23)C[C@@H](OCCCCO)O1	-29.6%
CC(C)N(C(=O)CSc1nnc(CSc2ncccn2)n1C)C(C)C	32.8%
CCCC(=O)Nc1ccc(NC(=O)C2CC2)cn1	2.49%
COc1ccc(OC)c(-n2c(-c3cnccn3)n[nH]c2=S)c1	18.3%
COc1ccc(S(=O)(=O)NC(CC(=O)NCc2ccco2)C(C)C)cc1 (centres unmarked)	-0.105%
CCc1c(C)sc(NC(=O)c2cc(C)no2)c1C#N	10.3%
COc1ccc(CCNC(=O)/C=C/c2ccc(C)cc2)cc1OC	-5.45%

SMILES	hERG current change (%, negative = inhibition) at 10uM
O=C(Cn1ccc2ccccc2c1=O)NCCC(=O)N1CCN(C2CCCCC2)CC1	-2.26%
CN(CC(=O)Nc1c(Cl)cccc1Cl)C(=O)Cc1cccs1	2.98%
COc1ccc(-c2cc(C(=O)O)c3sc(N4CCCCC4)nc3n2)cc1OC	-16.6%
O=C(Nc1ccc(Cl)cc1)c1ccc(OC2CSC2)cc1	11.6%
CC12CCC(C(=O)NNC(=O)c3ccc(Br)cc3)(OC1=O)C2(C)C (centres unmarked)	26.7%
COc1ccc(/C=C(\C#N)C(=O)NCc2ccccc2)cc1	19.4%
COc1ccc(-c2nnc3sc(-c4ccccc4OC)nn23)cc1	-0.411%
Clc1cc(Br)ccc1OCCOCCN1CCCC1.O=C(O)C(=O)O	-57.1%
CCOC(=O)c1cnn(CCOC(=O)c2ccccc2F)c1NC(=O)c1ccccc1F	-15.6%
CCOC(=O)N1CCN(C(=S)NC(=O)c2cc(Br)ccc2Cl)CC1	3.59%
COc1ccccc1N=C1SC(C)CN1C(=O)C1CCC1 (centres unmarked)	11.2%
CCOC(=O)C1=C(N)Oc2cc(C)n(C)c(=O)c2C1c1ccncc1 (centres unmarked)	1.5%
Oc1ccc(Br)cc1/C=N/Nc1nc(N2CCCCC2)nc(N2CCOCC2)n1	23.5%
COc1cc(CNCCN2CCOCC2)ccc1OCC(=O)NC(C)(C)C.Cl	6.17%
COc1ccc(/C=N/NC(=O)CCCOc2ccc(Cl)cc2Cl)cc1	25.9%
COC(=O)C1=NN(c2ccccc2)C2(S1)S/C(=C\c1ccccc1)C(=O)N2c1ccccc1 (centres unmarked)	13.3%
CC1(N(O)/C=C2\C=CC=CC2=O)CCCCC1=O (centres unmarked)	16.1%
CC(=NCCO)c1c(O)n(C2CCCCC2)c(=O)[nH]c1=O	-5.36%
Cc1ccc(S(=O)(=O)NNC(=O)c2sccc2-n2cccc2)cc1	-21.7%
CCOc1ncccc1C(=O)N=C1SCCN1C(=O)c1cccnc1OCC	4.52%
Cc1c(C(=O)Nc2ccc3oc(-c4cccnc4)nc3c2)oc2ccccc12	-16.8%
CC(C)NCC#CCOc1ccc(Cl)cc1.O=C(O)C(=O)O	-22.8%
CCCCOc1ccc(NC(=O)CN2CCN(Cc3ccccc3)CC2)cc1	-49.4%

SMILES	hERG current change (%, negative = inhibition) at 10uM
Cc1ccccc1-n1nc(C)c(N=O)c1N	23.5%
Cc1cc(N2CCN(c3cccc(C(F)(F)F)c3)CC2)n2ncnc2n1	-37%
O=C(CSc1n[nH]c(-c2ccccc2)n1)N1CCCC1	38.6%
O=C(CCCN=C1NS(=O)(=O)c2ccccc21)Nc1ccc(Cl)cc1	-26.3%
O=C(OCc1ccccc1C(F)(F)F)c1cc([N+](=O)[O-])ccc1N1CCOCC1	11.2%
COc1ccc(OC)c(S(=O)(=O)N2CCC(C(=O)NCc3ccncc3)CC2)c1	16.4%
CN(C)S(=O)(=O)c1ccc(=S)[nH]c1	24.6%
COc1ccc(S(=O)(=O)Nc2cc(C)cc(C)n2)c2ccccc12	3.95%
C/C(Cn1nc([N+](=O)[O-])cc1C)=N\NC(=O)COc1c(Cl)cc(Cl)cc1Cl	-68%
CCOC(=O)C1(Cc2cccc(F)c2)CCN(Cc2ccon2)CC1	3.48%
COc1ccccc1NC(=O)COC(=O)Cc1ccc(S(=O)(=O)N2CCCCC2)s1	-2.18%
O=C(CN(C(=O)c1csnn1)c1ccccc1F)NCc1ccc2c(c1)OCO2	-12.2%
CCCc1[nH]nc2c1C(c1cccc(OC(=O)c3ccco3)c1)C(C#N)=C(N)O2 (centres unmarked)	14.9%
C=CCn1c(O)c(N=NC(=S)Nc2cccc(OC)c2)c2ccccc21	-0.894%
COc1ccc(Cn2nnnc2C(c2ccccc2OC)N2CCC(C(N)=O)CC2)cc1 (centres unmarked)	-8.1%
CCn1cc(C(=O)Nc2ccc(OC)c(OC)c2)c2cc(OC)c(OC)cc2c1=O	3.63%
CSc1nncc(/C(C)=N\Nc2cccc(C)c2)n1	6.47%
CCOC(=O)c1cnc2c(ccc3ccccc32)c1NCCO	-26.4%
Cc1cnc(C(=O)Nc2ccc(C(=O)N3CCCCC3)cc2)cn1	1.54%
CC1CCc2c(sc3nc(CN4CCOCC4)nc(NS(=O)(=O)c4cccc([N+](=O)[O-])c4)c23)C1 (centres unmarked)	-28.9%
